Out of some 380,000 compounds screened, about 1,300 (0.34%) were called active. Inconclusive means that the source gave no clear call. Such entries were picked first, then a sample of the others.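 Rule for the calls: active = drop in luminescence signal, shown as inhibition above about 50% in the replicate tests (limit read from the data, passing the limit was not always enough); inconclusive = probably only some replicates passing the limit; inactive = the rest.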
test system: Drosophila bursicon receptor LGR2 (rickets); experiment: inhibitors of bursicon-induced LGR2 CRE-luciferase signal, primary screen, cell-based, HEK293, CRE-luciferase reporter, bursicon stimulation (AID 720647); settings: bursicon-stimulated, 4 h, at 9.99 µM, stronger effect = higher value;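 note: agonist challenge used bursicon conditioned medium at about half maximal strength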

Row | SMILES | inhibition
1 | CC(C)NC(=O)N[C@H]1CC[C@H](CCN)O[C@@H]1CO | inactive: -4.07%
2 | Cc1cc(C(=O)Nc2ccc(N3CCCCC3)cc2)no1 | inconclusive: 58.6%
3 | COc1ccc(CC(=O)Nc2ccc(S(=O)(=O)N(C)C3CCN(C)CC3)cc2)cc1 | inactive: 1.02%
4 | CCS(=O)(=O)N1[C@@H](CO)[C@H](c2ccccc2)C12CN(C(=O)C1CC1)C2 | inactive: -4.76%
5 | O=C1/C(=C/c2cccnc2)SC(=S)N1C1CCS(=O)(=O)C1 (stereo not given) | inconclusive: 61%
6 | NC(c1csc(NC(=O)Nc2cccc(Cl)c2)n1)c1ccccc1Cl (stereo not given) | inactive: 42%
7 | O=[N+]([O-])c1ccc(-c2cnc(SC(c3ccccc3)c3ccccc3)[nH]2)cc1 | inconclusive: 48.2%
8 | O=C(NCc1ccc(F)cc1)c1cc(C2CCCCN2S(=O)(=O)c2cccs2)on1 (stereo not given) | inconclusive: 55.7%
9 | Brc1ccc(-c2cn3ccccc3n2)s1 | inconclusive: 24.4%
10 | COc1ccc(CCNC(=O)C2CCN(S(=O)(=O)c3ccc(Cl)cc3)CC2)cc1OC | inconclusive: 11.8%
11 | Cc1ccc2nc(Nc3nc(-c4ccccc4)cc(=O)[nH]3)nc(C)c2c1 | inconclusive: 39.1%
12 | Cc1ccccc1-c1nc(-c2ccccn2)no1 | active: 95.5%
13 | Cc1ccc(CNS(=O)(=O)c2ccc3c(c2)CCN3C(=O)CCCC(=O)O)cc1 | inconclusive: 86.9%
14 | COc1ccc(OC)c(NC(=O)c2cccnc2Sc2cc(C)ccc2C)c1 | inconclusive: -0.634%
15 | COc1ccc(CN(C)C[C@@H]2OCCCC[C@@H](C)Oc3ccc(NC(=O)Nc4c(C)noc4C)cc3C(=O)N([C@@H](C)CO)C[C@H]2C)cc1 | inactive: 0.509%
16 | Cc1noc(C)c1S(=O)(=O)N(C)C[C@H]1Oc2ccc(NC(=O)Nc3cccc4ccccc34)cc2CC(=O)N([C@@H](C)CO)C[C@@H]1C | inactive: -34.6%
17 | CCCC(NCC(O)COc1ccc(-c2ccccc2)cc1)c1ccccc1 (stereo not given) | active: 75%
18 | Cc1ccc(/C=C/C(=O)c2c(C)cc(C)[nH]c2=O)cc1 | active: 69.6%
19 | C[C@@H]1CN([C@@H](C)CO)C(=O)CCCn2nncc2CO[C@@H]1CN(C)Cc1cccnc1 | inactive: 6.86%
20 | CCCCN(Cc1ccccc1)S(=O)(=O)c1cc2c(cc1Br)CC(C)N2C(C)=O (stereo not given) | inconclusive: 55%
21 | CC(C)(C)OC(=O)N1CCN(C(=O)c2ncn3c2c(=O)[nH]c2ccccc23)CC1 | inconclusive: 55.7%
22 | O=C1C=C(c2c(O)ccc3ccccc23)c2ccccc2C1=O | active: 95%
23 | COc1ccccc1CN(C)C[C@@H]1OCc2cnnn2CCCC(=O)N([C@H](C)CO)C[C@H]1C | inconclusive: 53.4%
24 | CC(C)C[C@@H](CN1CCC[C@H]1CN1C(=O)C(=O)NC[C@@H]1Cc1ccccc1)N1C[C@H](Cc2ccccc2)N(CC2CCCCCC2)C(=O)C1=O | inconclusive: 55.4%
25 | C[C@H]1CCCCO[C@@H](CN(C)C(=O)Nc2ccc3c(c2)OCO3)[C@@H](C)CN([C@@H](C)CO)C(=O)c2cc(NC(=O)NC3CCCCC3)ccc2O1 | inconclusive: 50.8%
26 | COc1ccccc1CNc1nc(Nc2ccc(C)cc2C)c2sccc2n1 | inconclusive: 45.9%
27 | C/C(=N\NC(=O)c1ccccc1NC(=O)c1ccc(Cl)cc1)c1ccncc1 | inconclusive: 52.3%

Row | SMILES | inhibition
28 | CCCCn1nnnc1C(c1cc2ccccc2o1)N1CCN(c2ccncc2)CC1 (stereo not given) | inconclusive: 54.1%
29 | CN1c2ccc(Br)cc2[C@@H]2[C@@H](CCN2S(=O)(=O)c2ccccc2F)[C@H]1CO | inactive: -2.17%
30 | CCCNC(=O)N1C[C@H](C)[C@H](OC)CN(C)C(=O)c2ccc(NS(C)(=O)=O)cc2OC[C@H]1C | inactive: 16.3%
31 | Cc1ccc2oc(C(F)(F)C(F)F)cc(=O)c2c1 | inactive: -19.4%
32 | CCCCc1c(-c2cccc(OC)c2)ncn1CCc1ccccc1OC | inconclusive: 10.3%
33 | Cc1ccccc1C(=O)N1CCN(c2ccc(NC(=O)c3ccc4c(c3)OCCO4)cc2)CC1 | inconclusive: 49.9%
34 | COc1ccc(NC(=S)N2CCN(Cc3cccc(F)c3)CC2)c(OC)c1 | inconclusive: 52.8%
35 | CO[C@H]1CN(C)C(=O)c2cc(NC(=O)C3CCC3)ccc2OC[C@@H](C)NC[C@@H]1C | inactive: 2.15%
36 | Cn1cc(C(=O)OCC2CCN(CCNS(C)(=O)=O)CC2)c2ccccc21 | inactive: 2.23%
37 | Cc1cccc(N2CCN(C3=NC(=O)/C(=C\c4cn[nH]c4-c4ccccc4)S3)CC2)c1 | inactive: 8.16%
38 | CCCC(C(=O)NCc1ccc(OC)cc1)N(Cc1ccco1)C(=O)c1snc(C(N)=O)c1N (stereo not given) | inconclusive: 3.4%
39 | CC(Oc1ccccc1)C(=O)OCC(=O)Nc1ccc2c(c1)OCO2 (stereo not given) | inconclusive: 8.07%
40 | COc1ccc(-c2cc3ccc(F)cc3cn2)cc1 | active: 62.8%
41 | CN(C)c1ccc(C(C(=O)NCc2ccccc2)N(Cc2ccco2)C(=O)c2snc(C(N)=O)c2N)cc1 (stereo not given) | inconclusive: 50.7%
42 | COc1ccc2c3c([nH]c2c1)[C@H](CO)N(CC1CC1)CC31CCN(Cc2ccccc2F)CC1 | inactive: 16.5%
43 | Cc1cc(NC(=O)CSc2nnc(C)c(=O)[nH]2)no1 | inconclusive: 57.1%
44 | Cc1ccc2nc(-c3ccccc3N)[nH]c2c1 | inconclusive: 64.1%
45 | O=C(NCc1ccccc1)C1CCCN(c2ncnc3c2nc2n3CCCCC2)C1 (stereo not given) | inactive: 0.881%
46 | Cc1c(NC(=O)c2cccc(NC(=O)COc3ccccc3C#N)c2)c(=O)n(-c2ccccc2)n1C | inconclusive: 3.97%
47 | CCn1c(=O)cc(C(=O)OC)sc1=Nc1ccc(F)c(F)c1 | inconclusive: 20.7%
48 | COc1cc2[nH]c3c(=O)n4c(nc3c2cc1OC)SCCC4 | inconclusive: 35.8%
49 | COc1ccc(C(=O)CC(Sc2ccccc2N)c2ccc(OC)cc2)cc1 (stereo not given) | active: 67.6%
50 | O=c1[nH]c2ccc(NC(=S)NC3CCCCC3)cc2[nH]1 | inconclusive: 60.2%
51 | Cc1ccc(/C=C/C(=O)NC2=NCCS2)cc1 | active: 72.3%
52 | O=C(COC(=O)Cc1ccc(F)cc1)NCCc1ccccc1 | inactive: -0.586%
53 | CCOC(=O)c1sc(NC(=O)Nc2ccccc2F)nc1C | inconclusive: 79.1%
54 | O=C1NC2c3c(I)sc(I)c3C(=O)C2O1 (stereo not given) | inconclusive: 27.2%

Row | SMILES | inhibition
55 | O=C(NCCc1ccccc1F)c1ccc2c(c1)OCCO2 | active: 102%
56 | COc1ccc(C(=O)Nc2ccccc2C(=O)N/N=C/c2ccncc2)cc1OC | inconclusive: 64.5%
57 | Nc1nc(-c2cccnc2)nc2sc3c(c12)CCCC3 | inactive: -37.2%
58 | O=C(C[C@@H]1C=C[C@H](NC(=O)Nc2cc(F)ccc2F)[C@@H](CO)O1)NCc1ccc2c(c1)OCO2 | inactive: 18.9%
59 | Cc1ccc(C(=O)N/C(=C\c2ccc(-c3ccc(Br)cc3)o2)C(=O)NCCCN(C)C)cc1 | inconclusive: 52.6%
60 | O=C(Nc1ccc(Cl)c(S(=O)(=O)N2CCOCC2)c1)c1ccc2c(c1)OCCO2 | inconclusive: 55.2%
61 | C[C@@H]1CCCCO[C@@H](CN(C)S(=O)(=O)c2cn(C)cn2)[C@H](C)CN([C@@H](C)CO)C(=O)c2cc(NS(=O)(=O)c3cccs3)ccc2O1 | inactive: 10.8%
62 | COc1ccccc1N(Cc1ccccc1)S(=O)(=O)c1cccc(C(=O)Nc2ncccc2C)c1 | inactive: -12.3%
63 | Cn1nnnc1Sc1ncnc2scc(Br)c12 | inconclusive: 53.6%
64 | N#Cc1cc2ccc(N3CCOCC3)cc2cc1C#N | inconclusive: 30.7%
65 | O=C(c1cc(-c2ccc(Cl)cc2Cl)on1)N1CCOCC1 | inconclusive: 46.7%
66 | Cc1ccc(-c2nc(C)c(C(=O)O)s2)cc1 | inconclusive: -7.69%
67 | CC(C)N(Cc1nc(-c2ccc(Cl)cc2)no1)C(=O)CN(C)S(=O)(=O)c1ccc(Cl)cc1 | inconclusive: 53.8%
68 | O=C(c1cc(-c2ccccc2Cl)on1)N1CCCC1 | inconclusive: 47.1%
69 | COC(=O)c1cc(=O)n(CCc2ccccc2)c(=Nc2ccc(F)cc2)s1 | inconclusive: 40%
70 | Cc1cc(C)n(-c2ccc(C(=O)Nc3ccc(C)c(S(=O)(=O)N4CCOCC4)c3)cc2)n1 | inconclusive: 40.9%
71 | C[C@H](CO)N1C[C@H](C)[C@@H](CN(C)S(=O)(=O)c2cccs2)Oc2c(NC(=O)c3cnccn3)cccc2C1=O | inactive: 10.9%
72 | Cn1c2ccccc2c(=O)c2c(=O)n(C3CCCCC3)c(-c3ccco3)nc21 | inconclusive: 50.5%
73 | CC[C@H](C)[C@@H]1NC(=O)[C@@H](CC(C)C)NC(=O)[C@H](C(C)C)NC(=O)[C@H]2CSSC[C@H](NC1=O)C(=O)N2 | active: 72.2%
74 | C[C@@H]1CCCCO[C@H](CN(C)Cc2ccccc2)[C@H](C)CN([C@H](C)CO)C(=O)c2cc(NC(=O)c3ccncc3)ccc2O1 | inactive: 14.7%
75 | Cc1cccc(NC(=O)c2ccc3c(c2)OCCO3)c1 | inconclusive: 36.3%
76 | O=C(CSc1ncnc2[nH]ncc12)Nc1nc(-c2ccc(F)c(F)c2)cs1 | inconclusive: 70.7%
77 | CC(=O)C1C(c2ccncc2)NC(=O)NC1(O)C(F)(F)F (stereo not given) | inconclusive: -9.39%
78 | O=C(COC(=O)c1cccc(S(=O)(=O)N2CCc3ccccc32)c1)Nc1ncc(C(F)(F)F)cc1Cl | inconclusive: 58.9%
79 | CCCCCCCCN1C(=O)[C@@H](CC(=O)NCc2ccccc2)C[C@@]2(C(=O)OC)C1=C[C@H](C(C)(C)C)O[C@@H]2C | inconclusive: 59%
80 | O=C1C=CC(=C(c2ccc(O)cc2)c2ccc(O)cc2)C=C1 | inconclusive: 50.1%

Source: PubChem BioAssay AID720647 (Broad Institute, 2013)
